From the supplement of paper PMC10126150
Sequences with one replicate were seen in a single cluster, so their values are uncertain.
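Note: ATP exposure 15 min at 22 °C before imaging.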

Each sequence was assayed on ATP (assay: switch fluorescence ratio, 500 uM ATP over buffer (Cy3 cluster intensity, sum of 5 cycles each) (fold (ratio)); higher = stronger signal-on switching upon ATP binding; sequences stand for … in TCGTCGGCAGCGTCAGATGTGTATAAGAGACAGTTTTTTTTTTTTTTTTTTTTTTTTT…TC). Details: aptamer strand: ATP DNA aptamer (quencher-CACCTGGGGGAGTATTGCGGAGGAAGG + anchor), 100 nM annealed; ATP concentration: 500 uM; one replicate.
Outline: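 Cy3-labelled switching-strand clusters on a modified Illumina MiSeq flow-cell were annealed to 100 nM quencher-labelled ATP aptamer and imaged first in selection buffer, then after 15 min with 500 uM ATP at 22 °C. NaOH stripping and re-annealing separated each of five buffer/ATP cycles, and clusters outside 100-1000 RFU were excluded. The fluorescence ratio sums target-cycle Cy3 intensity over buffer-cycle Cy3 intensity per cluster and averages it per switch-domain sequence.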
GTTCGGTATT was tested, and the switch fluorescence ratio was 0.994. GTTCGTTG was tested, and the switch fluorescence ratio was 1.03. Sequence GTTCTAGCGG has a switch fluorescence ratio of 0.961. Work on GTTCTAGGAT yielded a switch fluorescence ratio of 0.985. For GTTCTATGAA, the switch fluorescence ratio was 0.991. In the case of GTTCTTCGG, the switch fluorescence ratio was 0.969. GTTGAATAGG showed a switch fluorescence ratio of 1. For GTTGACACCC, the switch fluorescence ratio was 1.16. Work on GTTGAGAAGT yielded a switch fluorescence ratio of 0.969. GTTGAGACGA gave a switch fluorescence ratio of 0.953. In the case of GTTGAGCCCA, the switch fluorescence ratio was 1.01. GTTGAGCCCC showed a switch fluorescence ratio of 1.01. GTTGAGTTTC gave a switch fluorescence ratio of 1.03. GTTGATAATA gave a switch fluorescence ratio of 1. With GTTGATACCA the switch fluorescence ratio was 0.95. Work on GTTGATCAGG yielded a switch fluorescence ratio of 0.978. Sequence GTTGATTAGT has a switch fluorescence ratio of 0.996. With GTTGCACGGT the switch fluorescence ratio was 0.996. With GTTGCACTAG the switch fluorescence ratio was 0.976. GTTGCGATCT was tested, and the switch fluorescence ratio was 0.922. With GTTGGAAGGG the switch fluorescence ratio was 1.01. In the case of GTTGGAGTT, the switch fluorescence ratio was 1.01. GTTGGATACG gave a switch fluorescence ratio of 1.01. For GTTGGCCCTG, the switch fluorescence ratio was 0.991. In the case of GTTGGCGCTG, the switch fluorescence ratio was 0.956. GTTGGCGGAG gave a switch fluorescence ratio of 1.01. Work on GTTGGCGGCG yielded a switch fluorescence ratio of 0.979. For GTTGGCTGGA, the switch fluorescence ratio was 1.03. With GTTGGGTCCG the switch fluorescence ratio was 0.97. GTTGGTTAG showed a switch fluorescence ratio of 0.962. With GTTGTAATCT the switch fluorescence ratio was 1.03. With GTTGTAGGGC the switch fluorescence ratio was 1.02. GTTGTAGTAT gave a switch fluorescence ratio of 0.99. GTTGTATCTG was tested, and the switch fluorescence ratio was 0.989. With GTTGTCAACG the switch fluorescence ratio was 0.986. GTTGTCAGGC showed a switch fluorescence ratio of 1. With GTTGTCCATT the switch fluorescence ratio was 0.97. In the case of GTTGTCTTGC, the switch fluorescence ratio was 0.966. For GTTGTTGGAC, the switch fluorescence ratio was 0.997. For GTTGTTTCT, the switch fluorescence ratio was 0.994. Sequence GTTTAAACCC has a switch fluorescence ratio of 1.04. GTTTACAAGA was tested, and the switch fluorescence ratio was 1.02. For GTTTACTGGT, the switch fluorescence ratio was 0.989. Work on GTTTACTGTA yielded a switch fluorescence ratio of 1.02. Work on GTTTAGAGGG yielded a switch fluorescence ratio of 1.01. With GTTTAGGGAG the switch fluorescence ratio was 0.991. For GTTTATAGAT, the switch fluorescence ratio was 0.981. Sequence GTTTCAAAAA has a switch fluorescence ratio of 0.98. Sequence GTTTCAAGGT has a switch fluorescence ratio of 1.06. GTTTCATTAG gave a switch fluorescence ratio of 1.02. GTTTCTAATA showed a switch fluorescence ratio of 0.986. GTTTGAAACC gave a switch fluorescence ratio of 1.01. GTTTGAATCA was tested, and the switch fluorescence ratio was 0.975. In the case of GTTTGAGCAT, the switch fluorescence ratio was 0.999. In the case of GTTTGATTTT, the switch fluorescence ratio was 0.956. GTTTGCAACC was tested, and the switch fluorescence ratio was 1.06. GTTTGCAATT showed a switch fluorescence ratio of 1.04. With GTTTGCGTGC the switch fluorescence ratio was 0.976. For GTTTGGCAG, the switch fluorescence ratio was 1.01. With GTTTGGCAGT the switch fluorescence ratio was 1.01. In the case of GTTTGGCCTC, the switch fluorescence ratio was 0.996. GTTTGGGCAC showed a switch fluorescence ratio of 0.973. With GTTTGGGCCC the switch fluorescence ratio was 0.981. Sequence GTTTGTCCGC has a switch fluorescence ratio of 1.04. GTTTGTGTCT showed a switch fluorescence ratio of 0.914. With GTTTGTGTGG the switch fluorescence ratio was 0.969. Work on GTTTGTTGAA yielded a switch fluorescence ratio of 0.95. For GTTTGTTTGC, the switch fluorescence ratio was 1.01. GTTTTAAGT was tested, and the switch fluorescence ratio was 0.994. GTTTTAGCGA was tested, and the switch fluorescence ratio was 1.07. With GTTTTATCCA the switch fluorescence ratio was 0.977. Work on GTTTTCAGTC yielded a switch fluorescence ratio of 0.991. In the case of GTTTTCGGAA, the switch fluorescence ratio was 1.06. Sequence GTTTTCTAAT has a switch fluorescence ratio of 0.969. GTTTTCTAGG gave a switch fluorescence ratio of 0.974. Sequence GTTTTCTTTG has a switch fluorescence ratio of 0.978. Work on GTTTTGACAG yielded a switch fluorescence ratio of 0.986. GTTTTTAG was tested, and the switch fluorescence ratio was 0.973. Work on GTTTTTATTA yielded a switch fluorescence ratio of 1.01. Sequence GTTTTTCAGC has a switch fluorescence ratio of 1.01. In the case of TAAAAACCCG, the switch fluorescence ratio was 1.05. With TAAAAAGCTT the switch fluorescence ratio was 0.988. In the case of TAAAACAGTA, the switch fluorescence ratio was 0.995. For TAAAACATAC, the switch fluorescence ratio was 1.23. With TAAAACTAAT the switch fluorescence ratio was 0.95. Sequence TAAAACTCAC has a switch fluorescence ratio of 1.02. TAAAAGCAGA showed a switch fluorescence ratio of 0.981. TAAAAGGAGT gave a switch fluorescence ratio of 1.01. In the case of TAAAATTACG, the switch fluorescence ratio was 1.37. For TAAAATTCCT, the switch fluorescence ratio was 1.12. Work on TAAACAGCGC yielded a switch fluorescence ratio of 1.01. Sequence TAAACAGTGG has a switch fluorescence ratio of 0.947. For TAAACATGCG, the switch fluorescence ratio was 0.978. Work on TAAACCAGGG yielded a switch fluorescence ratio of 1.87. TAAACTCT gave a switch fluorescence ratio of 1.03. With TAAAGAGAAC the switch fluorescence ratio was 1. TAAAGCCCAC showed a switch fluorescence ratio of 1.01. TAAAGCTATA gave a switch fluorescence ratio of 1.02. Sequence TAAAGGACG has a switch fluorescence ratio of 1. TAAAGGACGA gave a switch fluorescence ratio of 1.04.
